The whole screen tested about 370,000 compounds, of which about 150 (0.041%) were called active. Inconclusive means that the source gave no clear call. Such entries were picked first, then a sample of the others. Calls come from the whole dose curve; as a rule, active = well fitted inhibition curve with a large enough effect; inconclusive = small, poorly fitted or top-dose-only effect; inactive = flat fitted curve, though single readings scatter. Potencies of inconclusive entries are left out as doubtful fits.
Target: Beta-lactamase (Escherichia coli (strain K12)) (UniProt P00811)
Assay: qHTS Inhibitors of AmpC Beta-Lactamase (assay with detergent); note: nearly all actives have a fitted effect of over 25% in size;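 for activity change, negative = inhibition: 0% = no-compound wells and -100% = no-enzyme wells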
Details: AmpC hydrolysis of nitrocefin, absorbance 480 nm, 0.01% Triton; activity change, negative = inhibition: at 114 µM (top of the series)
In short: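 20 mM phosphate pH 7.0 + 0.01% (detergent screen) or 0.0001% Triton X-100; 5.3 nM AmpC reagent; cpd preinc 15 min RT; nitrocefin (800 uM stock) to start; A480 q20 s × 4 min; Activity was normalised to no-enzyme and no-compound control wells.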
Potency is the fitted concentration of half-maximal effect; tags give direction and shape of the fitted curve.

Chain of UniProt P00811 (P00811 whole entry, looked up): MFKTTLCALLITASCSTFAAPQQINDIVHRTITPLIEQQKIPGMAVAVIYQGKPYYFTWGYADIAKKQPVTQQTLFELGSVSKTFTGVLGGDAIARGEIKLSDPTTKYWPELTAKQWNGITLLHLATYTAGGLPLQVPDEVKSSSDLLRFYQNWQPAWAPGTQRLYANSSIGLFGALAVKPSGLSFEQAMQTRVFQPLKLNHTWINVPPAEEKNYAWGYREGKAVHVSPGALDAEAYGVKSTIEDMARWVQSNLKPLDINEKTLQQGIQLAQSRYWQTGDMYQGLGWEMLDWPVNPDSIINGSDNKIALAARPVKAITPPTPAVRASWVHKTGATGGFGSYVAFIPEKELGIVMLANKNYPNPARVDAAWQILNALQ

SMILES | Potency | activity change, negative = inhibition
COC(=O)C(NC(=O)c1ccco1)(Nc1ccc(Br)cn1)C(F)(F)F (stereo not drawn) | inconclusive [inhibitor, full curve, poor fit] | 
CC(Sc1ccccc1)C(=O)NCCc1ccccc1 (stereo not drawn) | inconclusive [inhibitor, full curve, poor fit] | 
CCC(=O)c1cc2c(cc1NC(=O)C(C)C)OCCO2 | inconclusive [inhibitor, full curve] | 
Cc1ccc(O)c(Cn2nnc3ccccc32)c1 | inconclusive [inhibitor, single point] | 
CCOC(=O)c1ccc(NC(=O)C2CC2)cc1 | inconclusive [inhibitor, partial curve, poor fit] | 
Cc1cc(C)c2c(N)c(-c3nc4ccccc4[nH]3)sc2n1 | inconclusive [inhibitor, partial curve] | 
COc1cccc(-c2noc(C3CCCN(S(=O)(=O)c4cccc(Cl)c4C)C3)n2)c1 (stereo not drawn) | inconclusive [inhibitor, full curve, poor fit] | 
CCCn1nc(NS(=O)(=O)c2ccccc2)c2cc3cc(C)ccc3nc21 | inconclusive [inhibitor, partial curve] | 
COc1ccc(C(=O)/C=C/c2ccc(OC)c(CN3CCOCC3)c2)cc1 | inconclusive [inhibitor, full curve, poor fit] | 
CCOC(=O)c1c(NC(=O)c2ccc(Br)o2)sc2c1CCCC2 | inconclusive [inhibitor, partial curve, poor fit] | 
CN(Cc1ccco1)c1ncnc2ccc(-c3ccc4c(c3)OCCO4)cc12 | inconclusive [inhibitor, full curve, poor fit] | 
Cc1ccccc1OCC(O)Cn1c(NCc2ccco2)nc2c1c(=O)n(C)c(=O)n2C (stereo not drawn) |  | inactive: -13.6%
C/C(=N\Nc1ccc([N+](=O)[O-])cc1)c1cccc(N)c1 | inconclusive [inhibitor, full curve, poor fit] | 
Clc1cccc(CN2C3=NCCCN3c3ccccc32)c1 |  | inactive: -11.9%
CC(C)[C@H](NC(=O)NCc1cccs1)C(=O)O | inconclusive [inhibitor, full curve, poor fit] | 
CCc1ccccc1NC(=O)Cn1c(=O)nc(-c2ccccc2)c2ccccc21 |  | inactive: 3.56%
CCOc1ccccc1OCC(=O)Oc1ccc(C)c(C)c1 | inconclusive [inhibitor, full curve, poor fit] | 
O=C(Cc1cc(=O)[nH]c(=O)[nH]1)NCc1ccccc1 | inconclusive [inhibitor, full curve] | 
CSc1nnc(C2CCNCC2)n1C | inconclusive [inhibitor, single point] | 
O=C(Nc1ccc(N2CCN(C(=O)c3cccs3)CC2)cc1)c1ccccc1Cl | inconclusive [inhibitor, full curve, poor fit] | 
COc1ccc(CNC(=O)CN(c2ccccc2OC)S(=O)(=O)c2ccc(C)cc2)cc1 |  | inactive: 10.5%
Cc1ccc(C(=O)Nc2ccccc2C(=O)Nc2ccccn2)cc1Cl | inconclusive [inhibitor, partial curve, poor fit] | 
O=c1ccnc(SCCC(F)=C(F)F)[nH]1 | inconclusive [inhibitor, full curve, poor fit] | 

SMILES | Potency | activity change, negative = inhibition
COc1ccccc1-c1cc(C(=O)N2CCCCC2)no1 | inconclusive [inhibitor, full curve] | 
CN1CCN(Cc2c(O)ccc3c(=O)c(Oc4ccccc4Cl)c(C(F)(F)F)oc23)CC1 | inconclusive [inhibitor, full curve, poor fit] | 
Cc1cccc(/C(N)=N/OC(=O)c2cccnc2)c1 |  | inactive: -4.64%
Cc1ccc(NC(=O)N(CCC(=O)O)Cc2ccccc2)cc1 |  | inactive: -6.46%
Cc1ccc(C)c(-c2cc(C(=O)Nc3sc(C)c(C)c3C(N)=O)c3ccccc3n2)c1 | inconclusive [inhibitor, full curve, poor fit] | 
O=C(NNc1ccc([N+](=O)[O-])cc1[N+](=O)[O-])c1ccco1 |  | inactive: 3.14%
CCCCCCOc1ccc(/C(C)=N/NC2=NCCN2)cc1[N+](=O)[O-] |  | inactive: 2.74%
O=C1CC(N2CCOCC2)C(=O)N1c1ccc2c(c1)OCO2 (stereo not drawn) |  | inactive: 1.37%
COc1ccc(N2CC(C(=O)Nc3c(C(N)=O)oc4ccccc34)CC2=O)cc1 (stereo not drawn) | inconclusive [inhibitor, full curve, poor fit] | 
O=C(Nc1ccccc1)NC1CCCCNC1=O (stereo not drawn) | inconclusive [inhibitor, single point] | 
CCOc1cc(CNC(=O)c2ccc(C)c(NC(=O)c3nsc4ccccc34)c2)ccc1OC |  | inactive: 29.4%
CC(C)CSc1ncc(-c2cccc(C(F)(F)F)c2)cn1 | inconclusive [inhibitor, partial curve] | 
c1ccc(-c2cc(-c3ccccc3)[nH]n2)cc1 | inconclusive [inhibitor, single point] | 
COc1ccc(CN(C)C(=O)C2CCN(C(=O)Nc3ccccc3)CC2)cc1 | inconclusive [inhibitor, full curve, poor fit] | 
CC(C)OC(=O)c1sc2nc(-c3ccccc3)ccc2c1N | inconclusive [inhibitor, full curve, poor fit] | 
C/C(Cn1ncc(N2CCOCC2)c(Cl)c1=O)=N\O | inconclusive [inhibitor, full curve] | 
O=C(NCCN1CCCC1=O)C1CCC(=O)N(CCc2ccc(Cl)cc2)C1 (stereo not drawn) | inconclusive [inhibitor, full curve] | 
Cc1cc(NC(=O)CSCC(=O)N(C)Cc2cccc(Cl)c2)no1 | inconclusive [inhibitor, full curve, poor fit] | 
O=C(O)Cc1ccc2ocnc2c1 | inconclusive [inhibitor, partial curve, poor fit] | 
O=c1c2ccccc2nc(/C=C/c2ccc3c(c2)OCO3)n1-c1cccc(O)c1 | inconclusive [inhibitor, full curve] | 
CC(C)(C)n1nnnc1C(c1ccccc1)N1CCc2ccccc2C1 (stereo not drawn) | inconclusive [inhibitor, partial curve, poor fit] | 
Cc1cccc2c1-c1sc(C(=O)Nc3nccs3)cc1CO2 | inconclusive [inhibitor, partial curve] | 
O=C(/C=C/c1ccccc1Cl)N1CCCN(C(=O)/C=C/c2ccccc2Cl)CC1 | inconclusive [inhibitor, partial curve, poor fit] | 

SMILES | Potency | activity change, negative = inhibition
Cc1ccc(F)c(CNC(=O)C2CCC(=O)N(CCCN3CCCC3=O)C2)c1F (stereo not drawn) | inconclusive [inhibitor, partial curve] | 
CCN(CC)CCCCCC(=O)Nc1ccccc1C(=O)Nc1ccccc1 |  | inactive: 1.98%
O=C(CSc1nnc(-c2ccc(NS(=O)(=O)c3ccccc3)cc2)o1)NCC1CCCO1 (stereo not drawn) | inconclusive [inhibitor, full curve, poor fit] | 
Cc1ccc(NC(=O)Cn2ncn3c(cc4ccccc43)c2=O)c(C)c1 | inconclusive [inhibitor, single point] | 
CCOc1cccc2c1OC1(C)CC2NC(=O)N1c1cccc(C(=O)N2CCN(c3ccccn3)CC2)c1 (stereo not drawn) | inconclusive [inhibitor, full curve] | 
CCOc1ccc2[nH]c(=O)c(CN(Cc3ccc(F)cc3)C(=O)c3ccco3)cc2c1 |  | inactive: -15.5%
CN(C)S(=O)(=O)c1ccc(NC(=O)CNc2cc(S(=O)(=O)N3CCCC3)ccc2OCC(F)(F)F)cc1 |  | inactive: -0.506%
O=C(O)CCC(=O)N1CCN(S(=O)(=O)c2cccs2)CC1 |  | inactive: 4.33%
CC(=O)Oc1c(C)c(C)c2c(c1C)CCC(C)(CCCC(C)CCCC(C)CCCC(C)C)O2 (stereo not drawn) | inconclusive [inhibitor, full curve, poor fit] | 
CCOC(=O)C1=C(C)NC(=O)NC1c1ccc(F)cc1 (stereo not drawn) | inconclusive [inhibitor, full curve] | 
COc1ccc(/C=C/C(=O)NC2CCS(=O)(=O)C2)cc1 (stereo not drawn) | inconclusive [inhibitor, full curve, poor fit] | 
O=C(NCC1CCCO1)C(C(=O)c1ccccc1)n1ccccc1=O (stereo not drawn) | inconclusive [inhibitor, full curve] | 
COc1ccc(CNC(=O)CSc2nc3ccsc3c(=O)n2Cc2ccccc2Cl)cc1 |  | inactive: 2.39%
CC1(C)CN2C(c3ccc(Cl)cc3)N2C1 (stereo not drawn) | inconclusive [inhibitor, full curve, poor fit] | 
COc1ccc(CCNC(=O)c2cccc(S(=O)(=O)N3CCOCC3)c2)cc1OC | inconclusive [inhibitor, full curve] | 
CCOc1ccc(N(CC(=O)NCCSc2ccccn2)S(C)(=O)=O)cc1 |  | inactive: -7.03%
CCN(CC)C(C(=O)NC1CCCCC1)c1ccc(C)cc1 (stereo not drawn) |  | inactive: 1.24%
CN1CCN(S(=O)(=O)c2ccc(Cl)cc2)CC1 | inconclusive [inhibitor, full curve, poor fit] | 
Nc1ncc(-c2ccccc2)c(-c2ccc(OCc3ccccc3)cc2O)n1 | inconclusive [inhibitor, partial curve, poor fit] | 
CCN=C1SC(CC(=O)Nc2ccccc2)C(=O)N1CC (stereo not drawn) | inconclusive [inhibitor, full curve] | 
CC(C)Cc1nn2c(=O)cc(COC(=O)c3ccc4c(c3)OCO4)nc2s1 |  | inactive: -7.95%
COC(=O)c1sccc1NC(=O)CSc1nnnn1-c1ccccc1C | inconclusive [inhibitor, single point] | 

— PubChem BioAssay AID485294 (National Center for Advancing Translational Sciences (NCATS), 2010)
